This passage reports AC50 and z-score results from PubChem BioAssay (NCATS).

Experiment [1] can be described thus: qHTS drug screen for cell cycle checkpoint inhibitors in PARPi-resistant BRCA-mutant ovarian cancer cell lines. (AID 1963452). The following applies: PEO1/OlaR viability, CellTiter-Glo luminescence, 96 h. In a few lines: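 PEO1, PEO4 and PEO1/OlaR ovarian cancer cells, 600 per well, exposed 96 h at 37C to a dilution series. Viability read by CellTiter-Glo luminescence, normalized to DMSO and empty wells; activity summarized as Z-AUC.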
In general terms: Quantitative high-throughput screening tests each substance at several concentrations.

Experiment [2] is described as follows: qHTS for identification of novel therapeutic agents for treatment of microphthalmiaassociated transcription factor (MiT) renal cell carcinoma (RCC) (AID 1963991). The following applies: CellTiter-Glo, 48 h; for z-score: stronger effect = lower value. The gist of the method: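 Three TFE3-fusion RCC cell lines (UOK109, UOK124, UOK145), 500 cells/well, were exposed to the 1912-compound MIPE 4.0 library for 48 hours at 37 C. Viability was read by CellTiter-Glo luminescence, normalised to DMSO (100%) and empty wells (0%), with 11-concentration curve fits.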

Where [3] appears, read: measured here: PEO1 parental viability.
The mark [4] stands for this setting: TFE3-RCC UOK109 viability, measured here: UOK109 Z-AUC.
The mark [5] stands for this setting: TFE3-RCC viability, measured here: UOK124 Z-AUC.
The mark [6] stands for this setting: TFE3-RCC viability, measured here: UOK124 cell viability.
Where [7] appears, read: TFE3-RCC viability, measured here: UOK145 Z-AUC.
[8] abbreviates: TFE3-RCC viability, measured here: UOK145 cell viability.

This is one part of the list. Further columns of the screen follow, without active or inactive calls. For some assays here: Compounds called inactive in the main read-out are mostly missing here. The note in brackets gives the kind of curve behind each potency; many fits are weak.
Tags give direction and shape of the fitted curve.

For `NC(=O)Nc1sc(-c2ccc(F)cc2)cc1C(N)=O`, the AC50 in experiment [1] (setting [3]) is 6.92 µM [falling, partial curve, poor fit]; in experiment [1] (measured here: PEO4 viability), 8.71 µM [falling, partial curve, poor fit]; in experiment [2] (setting [6]) it was 1.32 µM [falling, full curve]; in experiment [2] (setting [8]) it was 1.32 µM [falling, full curve]. The values for the z-score in experiment [2] (setting [4]), in experiment [2] (setting [5]) and in experiment [2] (setting [7]) were -1.68, -1.15 and -0.515, respectively.
Regarding `COc1cc([C@@H]2c3cc4c(cc3[C@@H](O[C@@H]3O[C@@H]5CO[C@@H](C)O[C@@H]5[C@H](O)[C@@H]3O)[C@H]3COC(=O)[C@H]23)OCO4)cc(OC)c1O`, the AC50 in experiment [1] (setting [3]) was 0.871 µM [falling, full curve]; in experiment [1] (measured here: PEO4 viability) it was 5.49 µM [falling, partial curve]; in experiment [2] (setting [6]), 4.69 µM [falling, full curve]; in experiment [2] (setting [8]), 4.18 µM [falling, full curve]. Moreover, the z-score in experiment [2] (setting [4]) was 0.2; in experiment [2] (setting [5]) it was -0.348; in experiment [2] (setting [7]), -0.956.
As to `COc1ccc2cc(-c3nc(-c4ccc(S(C)=O)cc4)[nH]c3-c3ccncc3)ccc2c1` (configuration not stated), the concentration at half-maximal activity (AC50) in experiment [1] (setting [3]) was 19.5 µM [falling, partial curve]; in experiment [1] (measured here: PEO4 viability), 17.4 µM [falling, single point]; in experiment [2] (setting [6]) it was 37.2 µM [falling, single point]; in experiment [2] (setting [8]) it was 37.2 µM [falling, single point]. Also, the results for the z-score in experiment [2] (setting [4]), in experiment [2] (setting [5]) and in experiment [2] (setting [7]) were 0.538, 0.265 and 0.606, respectively.
With `CCOC(CN1C(=O)[C@](CC(=O)Nc2ccc(C)cc2)(NC(=O)Nc2ccc(C)cc2)c2ccccc21)OCC`, the concentration at half-maximal activity (AC50) is 24.5 µM [falling, single point] in experiment [1] (setting [3]); 24.5 µM [falling, single point] in experiment [1] (measured here: PEO4 viability); 20.9 µM [falling, partial curve] in experiment [2] (setting [6]); 37.2 µM [falling, single point] in experiment [2] (setting [8]). Further, the values for the z-score in experiment [2] (setting [4]), in experiment [2] (setting [5]) and in experiment [2] (setting [7]) were 0.0417, 0.572 and 0.0574, respectively.
Take `COc1cc2nccc(Oc3ccc(NC(=O)C4(C(=O)Nc5ccc(F)cc5)CC4)cc3)c2cc1OC`: the AC50 in experiment [1] (setting [3]) is 5.49 µM [falling, partial curve]; in experiment [1] (measured here: PEO4 viability) it was 2.19 µM [falling, full curve]; in experiment [2] (setting [6]), 16.6 µM [falling, partial curve]; in experiment [2] (setting [8]), 10.5 µM [falling, partial curve]. For the same molecule, the z-score is -0.546 in experiment [2] (setting [4]), 0.261 in experiment [2] (setting [5]) and -0.205 in experiment [2] (setting [7]).
For the molecule `C#Cc1cccc(Nc2ncnc3cc(OCCOC)c(OCCO)cc23)c1`, the concentration at half-maximal activity (AC50) in experiment [1] (setting [3]) is 12.3 µM [falling, partial curve]; in experiment [1] (measured here: PEO4 viability), 19.5 µM [falling, partial curve, poor fit]; in experiment [2] (setting [6]), 16.6 µM [falling, partial curve, poor fit]; in experiment [2] (setting [8]) it was 14.8 µM [falling, partial curve]. Also, the z-score in experiment [2] (setting [4]) is -2.87; in experiment [2] (setting [5]), -0.209; in experiment [2] (setting [7]), -0.665.
In the case of `CCNc1cc(NC2CCC(O)CC2)nc(Nc2ccc3c(ccn3Cc3ccccc3)c2)n1` (configuration not stated), the half-maximal activity concentration (AC50) was 12.3 µM [falling, partial curve] in experiment [1] (setting [3]); 24.5 µM [falling, partial curve, poor fit] in experiment [1] (measured here: PEO4 viability); 26.4 µM [falling, partial curve] in experiment [2] (setting [6]); 26.4 µM [falling, single point] in experiment [2] (setting [8]). Moreover, the z-score in experiment [2] (setting [4]) was -0.0409; in experiment [2] (setting [5]), -0.168; in experiment [2] (setting [7]), -0.542.
For the molecule `CNc1nccc(-c2cccnc2Oc2cc(C(=O)Nc3cccc(C(F)(F)F)c3)ccc2C)n1`, the AC50 in experiment [1] (setting [3]) was 5.49 µM [falling, single point]; in experiment [1] (measured here: PEO4 viability) it was 4.9 µM [falling, single point]; in experiment [2] (setting [6]) it was 20.9 µM [falling, partial curve, poor fit]; in experiment [2] (setting [8]), 18.7 µM [falling, partial curve]. The z-score in experiment [2] (setting [4]) was determined as 0.499; in experiment [2] (setting [5]), 0.607; in experiment [2] (setting [7]), 0.00353.
Take `NC(CO)(CO)CCc1ccc(Sc2cccc(OCc3ccccc3)c2)cc1Cl`: the half-maximal activity concentration (AC50) in experiment [1] (setting [3]) is 19.5 µM [falling, partial curve]; in experiment [1] (measured here: PEO4 viability) it was 12.3 µM [falling, partial curve]; in experiment [2] (setting [6]) it was 14.8 µM [falling, partial curve]; in experiment [2] (setting [8]) it was 18.7 µM [falling, partial curve]. For the same molecule, the z-score is 0.378 in experiment [2] (setting [4]), -0.782 in experiment [2] (setting [5]) and 0.185 in experiment [2] (setting [7]).
Take `N#CCNC(=O)c1ccc(-c2ccnc(Nc3ccc(N4CCOCC4)cc3)n2)cc1`: the half-maximal activity concentration (AC50) is 13.8 µM [falling, partial curve] in experiment [1] (setting [3]); 24.5 µM [falling, single point] in experiment [1] (measured here: PEO4 viability); 16.6 µM [falling, partial curve] in experiment [2] (setting [6]); 16.6 µM [falling, partial curve] in experiment [2] (setting [8]). Moreover, the z-score in experiment [2] (setting [4]) is -0.229; in experiment [2] (setting [5]), 0.121; in experiment [2] (setting [7]), -0.57.
Take `CC[C@H](CO)Nc1nc(NCc2ccccc2)c2ncn(C(C)C)c2n1`: the concentration at half-maximal activity (AC50) in experiment [1] (setting [3]) was 24.5 µM [falling, single point]; in experiment [1] (measured here: PEO4 viability), 24.5 µM [falling, single point]; in experiment [2] (setting [6]), 20.9 µM [falling, partial curve]; in experiment [2] (setting [8]), 23.5 µM [falling, partial curve]. For the same molecule, the z-score was 0.323 in experiment [2] (setting [4]), -0.0134 in experiment [2] (setting [5]) and 0.0616 in experiment [2] (setting [7]).

One may read the AC50 as the concentration giving half of the maximal activity seen.
